Source: publication PMC3573117, “Identification of the SlmA Active Site Responsible for Blocking Bacterial Cytokinetic Ring Assembly over the Chromosome” (PLoS Genetics, 2013)
These are yes or no findings as the source states them, for the method shown. Some entries that bind do so weakly or less than the wild type.

T1: ^EESlmA (Escherichia coli) (UniProt P0C093)
T1 sequence: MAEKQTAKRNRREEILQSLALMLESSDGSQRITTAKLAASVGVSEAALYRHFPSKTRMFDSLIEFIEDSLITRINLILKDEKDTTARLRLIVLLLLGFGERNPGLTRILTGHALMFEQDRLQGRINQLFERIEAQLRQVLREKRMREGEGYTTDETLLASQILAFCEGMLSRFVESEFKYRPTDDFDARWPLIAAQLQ

T2: ^EESlmA(FRN) (Escherichia coli) (UniProt P0C093)
T2 sequence: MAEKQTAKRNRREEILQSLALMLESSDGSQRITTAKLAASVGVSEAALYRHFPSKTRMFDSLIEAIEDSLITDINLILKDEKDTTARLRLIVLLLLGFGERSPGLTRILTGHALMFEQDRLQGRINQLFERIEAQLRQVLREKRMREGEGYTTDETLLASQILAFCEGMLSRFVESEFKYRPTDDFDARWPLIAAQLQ

T3: FtsZ(D212N) (UniProt P0A9A6 1-383, D212N)
T3 construct: FtsZ, tubulin-like cell division protein, GTPase-defective derivative D212N; Polymerised with 5 mM GTP in the assay; also called FtsZ(D212N) polymers; FtsZ(D212N) protofilaments
T3 sequence (looked up): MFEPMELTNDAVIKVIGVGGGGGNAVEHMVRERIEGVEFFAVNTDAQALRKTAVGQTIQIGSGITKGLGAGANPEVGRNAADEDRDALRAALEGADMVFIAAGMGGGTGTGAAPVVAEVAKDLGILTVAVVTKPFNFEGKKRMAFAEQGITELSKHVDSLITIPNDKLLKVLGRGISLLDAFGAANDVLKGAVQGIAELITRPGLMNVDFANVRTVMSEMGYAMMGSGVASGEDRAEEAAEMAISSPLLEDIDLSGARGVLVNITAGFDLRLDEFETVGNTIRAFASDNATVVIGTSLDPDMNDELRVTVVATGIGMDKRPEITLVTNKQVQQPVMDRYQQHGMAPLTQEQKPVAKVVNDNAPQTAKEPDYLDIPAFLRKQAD


Legend:
[1] = target: T1, ^EESlmA (Escherichia coli); assay: two-hybrid; bacterial two-hybrid (BACTH): T25 and T18 fusions co-transformed into BTH101 [cya-99]; patches on M9-glucose with Amp, Kan, X-gal, 250 µM IPTG, 30°C, 30 hours; blue colour = interaction; part of the combinations is data not shown
[2] = target: T2, ^EESlmA(FRN) (Escherichia coli); assay: as above
FtsZ(D212N) = target: T3, FtsZ(D212N); assay: co-sedimentation; FtsZ(D212N) 5 µM with GTP 5 mM, SBS17 DNA 2.5 µM and SlmA derivative 5 µM, room temperature 15 min; 80,000 rpm, TLA100.2 rotor, 15 min; supernatant and pellet on SDS-PAGE, Coomassie; both purified

Binder | binding [1] | binding [2] | binding (FtsZ(D212N))
^RRSlmA (protein, UniProt P0C093 1-198) MAEKQTAKRNRREEILQSLALMLESSDGSQRITTAKLAASVGVSEAALYRHFPSKTRMFDSLIEFIEDSLITRINLILKDEKDTTARLRLIVLLLLGFGERNPGLTRILTGHALMFEQDRLQGRINQLFERIEAQLRQVLREKRMREGEGYTTDETLLASQILAFCRGMLSRFVRSEFKYRPTDDFDARWPLIAAQLQ | binds | binds | 
^RRSlmA(FRN) (protein, UniProt P0C093 1-198) MAEKQTAKRNRREEILQSLALMLESSDGSQRITTAKLAASVGVSEAALYRHFPSKTRMFDSLIEAIEDSLITDINLILKDEKDTTARLRLIVLLLLGFGERSPGLTRILTGHALMFEQDRLQGRINQLFERIEAQLRQVLREKRMREGEGYTTDETLLASQILAFCRGMLSRFVRSEFKYRPTDDFDARWPLIAAQLQ | binds | binds | 
SlmA(F65A) (protein, UniProt P0C093 1-198) MAEKQTAKRNRREEILQSLALMLESSDGSQRITTAKLAASVGVSEAALYRHFPSKTRMFDSLIEAIEDSLITRINLILKDEKDTTARLRLIVLLLLGFGERNPGLTRILTGHALMFEQDRLQGRINQLFERIEAQLRQVLREKRMREGEGYTTDETLLASQILAFCEGMLSRFVRSEFKYRPTDDFDARWPLIAAQLQ |  |  | no binding (tested: 5 µM)
SlmA(R101D) (protein, UniProt P0C093 1-198) MAEKQTAKRNRREEILQSLALMLESSDGSQRITTAKLAASVGVSEAALYRHFPSKTRMFDSLIEFIEDSLITRINLILKDEKDTTARLRLIVLLLLGFGEDNPGLTRILTGHALMFEQDRLQGRINQLFERIEAQLRQVLREKRMREGEGYTTDETLLASQILAFCEGMLSRFVRSEFKYRPTDDFDARWPLIAAQLQ |  |  | no binding (tested: 5 µM)
SlmA(N102S) (protein, UniProt P0C093 1-198) MAEKQTAKRNRREEILQSLALMLESSDGSQRITTAKLAASVGVSEAALYRHFPSKTRMFDSLIEFIEDSLITRINLILKDEKDTTARLRLIVLLLLGFGERSPGLTRILTGHALMFEQDRLQGRINQLFERIEAQLRQVLREKRMREGEGYTTDETLLASQILAFCEGMLSRFVRSEFKYRPTDDFDARWPLIAAQLQ |  |  | no binding (tested: 5 µM)
SlmA(FRN) (protein, UniProt P0C093 1-198) MAEKQTAKRNRREEILQSLALMLESSDGSQRITTAKLAASVGVSEAALYRHFPSKTRMFDSLIEAIEDSLITDINLILKDEKDTTARLRLIVLLLLGFGERSPGLTRILTGHALMFEQDRLQGRINQLFERIEAQLRQVLREKRMREGEGYTTDETLLASQILAFCEGMLSRFVRSEFKYRPTDDFDARWPLIAAQLQ |  |  | no binding (tested: 5 µM)
